Test in all cases: FRET or BRET; BRET in living HEK293 cells co-transfected with Rluc (donor) and YFP (acceptor) fusions, acceptor to donor ratio 3:1; read 48 h later with coelenterazine 30 μM; all eight combinations of N- or C-terminal fusions tested in duplicates; interaction assumed if at least one combination gave a BRET ratio above the threshold of 0.094
In general terms: Bioluminescence resonance energy transfer reports proximity on the nanometre scale.

The target in one experiment is T1, peroxin PEX6 (UniProt Q13608).
T1 sequence: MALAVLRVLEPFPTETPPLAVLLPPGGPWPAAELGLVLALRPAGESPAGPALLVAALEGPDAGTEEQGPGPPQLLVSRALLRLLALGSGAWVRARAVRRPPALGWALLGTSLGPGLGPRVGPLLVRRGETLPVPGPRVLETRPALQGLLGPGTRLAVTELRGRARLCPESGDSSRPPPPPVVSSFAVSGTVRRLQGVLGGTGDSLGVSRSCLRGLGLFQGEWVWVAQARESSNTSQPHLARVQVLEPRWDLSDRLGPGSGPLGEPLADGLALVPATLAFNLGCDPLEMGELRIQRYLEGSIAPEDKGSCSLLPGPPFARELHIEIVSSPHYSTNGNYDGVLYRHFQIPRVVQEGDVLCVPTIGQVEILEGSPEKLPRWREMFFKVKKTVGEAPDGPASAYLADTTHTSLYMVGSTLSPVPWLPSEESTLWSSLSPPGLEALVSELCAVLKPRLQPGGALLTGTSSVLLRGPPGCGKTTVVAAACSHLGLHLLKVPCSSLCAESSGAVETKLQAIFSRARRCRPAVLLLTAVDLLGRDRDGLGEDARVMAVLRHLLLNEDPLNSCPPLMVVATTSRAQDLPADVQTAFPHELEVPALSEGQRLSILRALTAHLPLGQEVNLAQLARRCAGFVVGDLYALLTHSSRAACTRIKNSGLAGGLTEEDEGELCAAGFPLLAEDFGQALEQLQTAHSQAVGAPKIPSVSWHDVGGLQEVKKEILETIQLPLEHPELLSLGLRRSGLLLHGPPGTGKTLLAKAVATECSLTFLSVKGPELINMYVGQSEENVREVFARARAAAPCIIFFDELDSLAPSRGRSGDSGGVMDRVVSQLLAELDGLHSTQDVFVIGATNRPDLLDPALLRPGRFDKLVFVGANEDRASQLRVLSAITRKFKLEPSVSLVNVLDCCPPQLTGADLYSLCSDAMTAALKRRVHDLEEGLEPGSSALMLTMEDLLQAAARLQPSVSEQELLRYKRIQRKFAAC

In another experiment the target is T2, PEX1 (UniProt O43933).
T2 sequence: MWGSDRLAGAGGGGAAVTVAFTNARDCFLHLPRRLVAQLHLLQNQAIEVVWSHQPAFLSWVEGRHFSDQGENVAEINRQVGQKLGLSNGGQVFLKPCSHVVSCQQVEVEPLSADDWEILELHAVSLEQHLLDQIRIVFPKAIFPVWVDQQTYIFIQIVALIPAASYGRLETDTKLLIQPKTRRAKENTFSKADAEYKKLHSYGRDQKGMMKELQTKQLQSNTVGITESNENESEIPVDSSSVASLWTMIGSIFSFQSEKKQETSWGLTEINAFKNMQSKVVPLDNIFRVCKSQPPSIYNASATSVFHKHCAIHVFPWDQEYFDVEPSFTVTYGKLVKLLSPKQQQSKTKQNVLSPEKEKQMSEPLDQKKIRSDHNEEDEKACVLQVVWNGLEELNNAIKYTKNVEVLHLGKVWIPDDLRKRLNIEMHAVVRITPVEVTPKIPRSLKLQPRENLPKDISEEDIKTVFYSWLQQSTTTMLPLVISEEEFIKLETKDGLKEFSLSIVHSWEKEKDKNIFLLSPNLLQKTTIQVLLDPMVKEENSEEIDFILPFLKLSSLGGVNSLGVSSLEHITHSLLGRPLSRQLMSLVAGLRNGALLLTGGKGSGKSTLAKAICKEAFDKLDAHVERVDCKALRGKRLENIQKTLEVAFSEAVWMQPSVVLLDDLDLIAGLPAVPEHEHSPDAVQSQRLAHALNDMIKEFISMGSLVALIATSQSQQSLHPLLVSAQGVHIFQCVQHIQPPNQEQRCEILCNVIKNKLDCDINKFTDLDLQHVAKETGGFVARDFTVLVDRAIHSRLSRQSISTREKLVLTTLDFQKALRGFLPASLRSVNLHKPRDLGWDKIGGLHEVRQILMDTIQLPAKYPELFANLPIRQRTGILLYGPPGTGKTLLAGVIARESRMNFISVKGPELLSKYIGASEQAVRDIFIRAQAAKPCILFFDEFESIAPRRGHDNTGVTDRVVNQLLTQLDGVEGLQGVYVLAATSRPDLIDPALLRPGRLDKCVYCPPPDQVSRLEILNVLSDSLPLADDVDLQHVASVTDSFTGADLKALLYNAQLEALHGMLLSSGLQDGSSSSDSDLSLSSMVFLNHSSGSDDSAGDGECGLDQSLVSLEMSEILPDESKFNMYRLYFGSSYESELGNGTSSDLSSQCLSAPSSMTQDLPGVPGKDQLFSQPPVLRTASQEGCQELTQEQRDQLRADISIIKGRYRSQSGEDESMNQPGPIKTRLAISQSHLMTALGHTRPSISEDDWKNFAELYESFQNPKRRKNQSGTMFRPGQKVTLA

A further experiment addresses T3, PEX3 (UniProt P56589).
T3 sequence: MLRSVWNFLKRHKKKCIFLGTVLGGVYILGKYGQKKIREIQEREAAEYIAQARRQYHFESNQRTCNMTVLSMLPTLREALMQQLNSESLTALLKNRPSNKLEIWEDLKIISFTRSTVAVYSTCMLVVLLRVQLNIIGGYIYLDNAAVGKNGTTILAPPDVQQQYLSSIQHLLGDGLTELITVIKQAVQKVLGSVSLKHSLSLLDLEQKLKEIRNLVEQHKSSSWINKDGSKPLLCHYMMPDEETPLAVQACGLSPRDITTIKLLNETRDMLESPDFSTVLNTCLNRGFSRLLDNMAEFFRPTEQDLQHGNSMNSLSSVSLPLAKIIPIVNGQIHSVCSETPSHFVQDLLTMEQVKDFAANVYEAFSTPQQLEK

Results are given in words; binding and its absence hold for the method and conditions named. In cells and extracts the contact can be indirect. Some entries that bind do so weakly or less than the wild type.

B1: PEX26 p.Met1Thr truncated fragment (aa96-305) (domain or fragment, UniProt Q7Z412-1 96-305)
chain: MDRWQEVLSWVLQYYQVPEKLPPKVLELCILLYSKMQEPGAVLDVVGAWLQDPANQNLPEYGALAEFHVQRVLLPLGCLSEAEELVVGSAAFGEERRLDVLQAIHTARQQQKQEHSGSEEAQKPNLEGSVSHKFLSLPMLVRQLWDSAVSHFFSLPFKKSLLAALILCLLVVRFDPASPSSLHFLYKLAQLFRWIRKAAFSRLYQLRIRD
For B1, the binding entry in the experiment with peroxin PEX6 is listed as “no binding”.

B2: peroxin PEX6 (protein, UniProt Q13608 1-980)
chain: T1 sequence
For B2, the binding entry in the experiment with PEX1 is “binds”; with PEX3 it was “no binding”.

These data come from publication PMC8600046.
